In the supplement of paper PMC6657886:
MIC of clinical N. gonorrhoeae isolates (2015-2017) by agar dilution on GC agar with 1% IsoVitaleX (ranges not stated); higher = less susceptible. No active / inactive call per row; the paper counts benzylpenicillin above 1 and ceftriaxone above 0.125 mg/L as resistant (EUCAST). The method is stated for benzylpenicillin and ceftriaxone and assumed for the other drugs. '<=' is inferred from pile-ups at the end values. Isolates are numbered anew.

Tests used:
Assay in all cases: Agar dilution on enriched GC agar; resistance determinants by microarray.
[1] = compound: CN[C@@H]1[C@H](O)[C@H](NC)[C@H]2O[C@@]3(O)C(=O)C[C@@H](C)O[C@H]3O[C@@H]2[C@H]1O [spectinomycin]
[2] = compound: CO/N=C(\C(=O)N[C@@H]1C(=O)N2C(C(=O)O)=C(CSc3nc(=O)c(O)nn3C)CS[C@H]12)c1csc(N)n1 [ceftriaxone]
[3] = compound: CN(C)[C@@H]1C(O)=C(C(N)=O)C(=O)[C@@]2(O)C(O)=C3C(=O)c4c(O)cccc4[C@@](C)(O)[C@H]3C[C@@H]12 [tetracycline]
[4] = compound: CC[C@H]1OC(=O)[C@H](C)[C@@H](O[C@H]2C[C@@](C)(OC)[C@@H](O)[C@H](C)O2)[C@H](C)[C@@H](O[C@@H]2O[C@H](C)C[C@H](N(C)C)[C@H]2O)[C@](C)(O)C[C@@H](C)CN(C)[C@H](C)[C@@H](O)[C@]1(C)O [azithromycin]
[5] = compound: CC1(C)S[C@@H]2[C@H](NC(=O)Cc3ccccc3)C(=O)N2[C@H]1C(=O)O [benzylpenicillin]

Test System | MIC [1] | MIC [2] | MIC [3] | MIC [4] | MIC [5]
Neisseria gonorrhoeae isolate 147 (blaTEM plasmid: no, gyrA: wild type, mtrR promoter: -35delA, parC: wild type, penA: ins345Asp, ponA: wild type, porB: wild type, rpsJ: Met57, tetM plasmid: no) | 16 µg/mL | ≤ 0.002 µg/mL | 0.5 µg/mL | 0.12 µg/mL | 0.25 µg/mL
Neisseria gonorrhoeae isolate 366 (blaTEM plasmid: yes, gyrA: Phe91, Asn 95, mtrR promoter: wild type, parC: Asn87, Lys91, penA: ins345Asp, ponA: Pro421, porB: wild type, rpsJ: Met57, tetM plasmid: no) | 32 µg/mL | 0.125 µg/mL | 1 µg/mL | 0.12 µg/mL | ≥ 32 µg/mL
Neisseria gonorrhoeae isolate 37 (blaTEM plasmid: no, gyrA: wild type, mtrR promoter: wild type, parC: wild type, penA: wild type, ponA: wild type, porB: wild type, rpsJ: wild type, tetM plasmid: no) | 16 µg/mL | ≤ 0.002 µg/mL | 0.5 µg/mL | 0.12 µg/mL | ≤ 0.015 µg/mL
Neisseria gonorrhoeae isolate 455 (blaTEM plasmid: no, gyrA: wild type, mtrR promoter: wild type, parC: Arg87, Glu91, penA: wild type, ponA: wild type, porB: wild type, rpsJ: Met57, tetM plasmid: no) | 32 µg/mL | ≤ 0.002 µg/mL | 0.5 µg/mL | 0.004 µg/mL | ≤ 0.015 µg/mL
Neisseria gonorrhoeae isolate 80 (blaTEM plasmid: no, gyrA: wild type, mtrR promoter: wild type, parC: wild type, penA: ins345Asp, ponA: wild type, porB: wild type, rpsJ: wild type, tetM plasmid: no) | 16 µg/mL | 0.008 µg/mL | 0.12 µg/mL | 0.12 µg/mL | 0.12 µg/mL
Neisseria gonorrhoeae isolate 287 (blaTEM plasmid: yes, gyrA: Phe91, Asp95, mtrR promoter: wild type, parC: wild type, penA: ins345Asp, ponA: wild type, porB: wild type, rpsJ: Met57, tetM plasmid: yes) | 32 µg/mL | ≤ 0.002 µg/mL | 16 µg/mL | 0.12 µg/mL | ≥ 32 µg/mL
Neisseria gonorrhoeae isolate 137 (blaTEM plasmid: no, gyrA: Phe91, Asn95, mtrR promoter: -35delA, parC: wild type, penA: ins345Asp, ponA: Pro421, porB: Asn120, Asp121, rpsJ: Met57, tetM plasmid: no) | 16 µg/mL | 0.008 µg/mL | 1 µg/mL | 0.25 µg/mL | 1 µg/mL
Neisseria gonorrhoeae isolate 447 (blaTEM plasmid: no, gyrA: Phe91, Gly95, mtrR promoter: wild type, parC: Arg 87, Glu91, penA: ins345Asp, ponA: Pro421, porB: Asp120, Ala121, rpsJ: Met57, tetM plasmid: no) | 16 µg/mL | ≤ 0.002 µg/mL | 0.5 µg/mL | 0.12 µg/mL | 0.25 µg/mL
Neisseria gonorrhoeae isolate 412 (blaTEM plasmid: no, gyrA: Phe91, Gly95, mtrR promoter: -35delA, parC: Arg87, Glu91, penA: ins345Asp, ponA: Pro421, porB: wild type, rpsJ: Met57, tetM plasmid: no) | 16 µg/mL | 0.008 µg/mL | 0.5 µg/mL | 0.25 µg/mL | 0.25 µg/mL
Neisseria gonorrhoeae isolate 469 (blaTEM plasmid: no, gyrA: Phe91, Asn 95, mtrR promoter: wild type, parC: wild type, penA: ins345Asp, ponA: Pro421, porB: Asp120, Gly121, rpsJ: Met57, tetM plasmid: yes) | 16 µg/mL | ≤ 0.002 µg/mL | 16 µg/mL | 0.06 µg/mL | 1 µg/mL
Neisseria gonorrhoeae isolate 61 (blaTEM plasmid: no, gyrA: Phe91, Gly95, mtrR promoter: -35delA, parC: Arg87, Glu91, penA: ins345Asp, ponA: Pro421, porB: wild type, rpsJ: Met57, tetM plasmid: no) | 16 µg/mL | ≤ 0.002 µg/mL | 0.5 µg/mL | 0.03 µg/mL | 0.25 µg/mL
Neisseria gonorrhoeae isolate 55 (blaTEM plasmid: no, gyrA: wild type, mtrR promoter: wild type, parC: wild type, penA: wild type, ponA: wild type, porB: wild type, rpsJ: wild type, tetM plasmid: no) | 16 µg/mL | ≤ 0.002 µg/mL | 0.06 µg/mL | 0.03 µg/mL | ≤ 0.015 µg/mL
Neisseria gonorrhoeae isolate 421 (blaTEM plasmid: no, gyrA: Phe91, Gly95, mtrR promoter: -35delA, parC: Arg87, Glu91, penA: ins345Asp, ponA: Pro421, porB: Lys 120, Gly121, rpsJ: Met57, tetM plasmid: no) | 32 µg/mL | ≤ 0.002 µg/mL | 0.5 µg/mL | 0.015 µg/mL | 0.25 µg/mL
Neisseria gonorrhoeae isolate 370 (blaTEM plasmid: no, gyrA: wild type, mtrR promoter: wild type, parC: wild type, penA: ins345Asp, ponA: wild type, porB: wild type, rpsJ: Met57, tetM plasmid: no) | 16 µg/mL | ≤ 0.002 µg/mL | 0.5 µg/mL | 0.06 µg/mL | 0.12 µg/mL
Neisseria gonorrhoeae isolate 235 (blaTEM plasmid: no, gyrA: wild type, mtrR promoter: wild type, parC: wild type, penA: ins345Asp, ponA: wild type, porB: wild type, rpsJ: wild type, tetM plasmid: no) | 16 µg/mL | 0.004 µg/mL | 0.5 µg/mL | 0.015 µg/mL | ≤ 0.015 µg/mL
Neisseria gonorrhoeae isolate 145 (blaTEM plasmid: yes, gyrA: Phe91, Asp95, mtrR promoter: wild type, parC: wild type, penA: ins345Asp, ponA: wild type, porB: wild type, rpsJ: Met57, tetM plasmid: yes) | 16 µg/mL | ≤ 0.002 µg/mL | 16 µg/mL | 0.06 µg/mL | ≥ 32 µg/mL
Neisseria gonorrhoeae isolate 478 (blaTEM plasmid: no, gyrA: wild type, mtrR promoter: wild type, parC: wild type, penA: ins345Asp, ponA: wild type, porB: wild type, rpsJ: wild type, tetM plasmid: no) | 16 µg/mL | ≤ 0.002 µg/mL | 0.25 µg/mL | 0.06 µg/mL | 0.06 µg/mL
Neisseria gonorrhoeae isolate 38 (blaTEM plasmid: no, gyrA: wild type, mtrR promoter: wild type, parC: wild type, penA: wild type, ponA: wild type, porB: wild type, rpsJ: wild type, tetM plasmid: no) | 32 µg/mL | ≤ 0.002 µg/mL | 0.25 µg/mL | 0.015 µg/mL | ≤ 0.015 µg/mL
Neisseria gonorrhoeae isolate 251 (blaTEM plasmid: no, gyrA: Phe91, Gly95, mtrR promoter: wild type, parC: Arg87, Glu91, penA: ins345Asp, ponA: Pro421, porB: Asp120, Ala121, rpsJ: Met57, tetM plasmid: no) | 32 µg/mL | 0.004 µg/mL | 0.5 µg/mL | 0.015 µg/mL | 0.25 µg/mL
Neisseria gonorrhoeae isolate 121 (blaTEM plasmid: no, gyrA: Phe91, Gly95, mtrR promoter: wild type, parC: Arg87, Glu91, penA: ins345Asp, ponA: Pro421, porB: wild type, rpsJ: Met57, tetM plasmid: no) | 32 µg/mL | 0.004 µg/mL | 0.5 µg/mL | 0.015 µg/mL | 0.25 µg/mL
